According to the supplement of paper PMC3724861:
The list shows a part of the results.

tested on: T1, Caupolican (Caup) homeodomain DNA-binding domain; assay: PBM E-score (8-mer, recovered from the published 9-mer minima) (E-score (dimensionless, -0.5 to 0.5)); Drosophila protein; higher = stronger relative binding preference, active = 0.31 or more
T1 sequence: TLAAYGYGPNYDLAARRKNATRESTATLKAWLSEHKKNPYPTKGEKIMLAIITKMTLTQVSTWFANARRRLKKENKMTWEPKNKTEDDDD
Method in brief: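 Caup's homeodomain DNA-binding domain (residues 214-303) was made by in vitro transcription and translation and applied at 100 nM to custom-designed protein binding microarrays. Each value is an enrichment score that gives relative binding preference for a short DNA word, with higher meaning stronger. The 8-mer values were recovered from published 9-mer scores, each of which was the minimum of its two constituent 8-mer scores. A cutoff of 0.31 marks candidate sites.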

Sequence	PBM E-score
GCTGTACC	inactive: 0.0813
AAGGTGCG	inactive: -0.106
CTTATCTC	inactive: -0.0307
AACGAGGG	inactive: -0.0492
CAGACCTG	inactive: -0.00642
AGGTTAAT	inactive: 0.0346
ACTCAGAA	inactive: 0.00328
GAGACAAC	inactive: 0.17
AAAGCAGT	inactive: -0.0257
GAGGTGAC	inactive: -0.0495
CCATCATA	inactive: 0.02
AGCTTACC	inactive: -0.108
AATGGCCC	inactive: -0.146
ACGTCACG	inactive: 0.0623
CGGAATGC	inactive: -0.175
ACATTCAA	inactive: 0.14
AGGCATAC	inactive: 0.0498
AATAACCT	≥ 0.142
GAGTGTCC	inactive: -0.0536
CGGATCCA	inactive: -0.0146
AGTAGTCA	inactive: 0.0805
AACACCAC	inactive: 0.179
GCTGAAAA	inactive: 0.0481
CTATGAAC	inactive: 0.0693
GAAGGCTA	inactive: -0.158

Sequence	PBM E-score
CTCCCGGA	inactive: -0.174
AAGATGCG	inactive: -0.0403
AACACGAA	inactive: 0.293
GACGTGTA	active: 0.344
CTGAGAAA	inactive: -0.0455
CTCTTTTC	inactive: -0.1
CTCCCCTC	inactive: -0.172
CACGACAA	inactive: 0.265
AAGTACAA	active: 0.327
ATCCGATA	inactive: 0.124
GGGTATCA	inactive: -0.0054
AGAGGACT	inactive: -0.13
AGGTTTAC	inactive: 0.0847
ACTGGAGA	inactive: -0.0781
ATCACAAG	inactive: 0.198
ATGCGCGA	inactive: -0.0858
TCGATCCA	inactive: 0.01
ATGCTTGA	inactive: 0.109
AAAGACCC	inactive: -0.122
ATCAGCAA	inactive: 0.0179
AATGCCGG	inactive: -0.143
TAATTAGA	inactive: 0.1
AAGAAACC	inactive: 0.0364
GTCAGCAA	inactive: 0.0474
ACCATCGA	≥ 0.0724

Sequence	PBM E-score
AGCCATTA	inactive: 0.00576
TGACATCA	active: ≥ 0.333
ACACGTTC	inactive: 0.209
ACGGCCGG	inactive: -0.145
ACATTTGA	inactive: 0.231
AATCTTGC	inactive: 0.0894
TAAGCGAA	inactive: -0.00816
CCTGGAGC	inactive: -0.159
ACTATTAC	inactive: 0.195
TATAACCA	≥ 0.167
CTAAAGTC	inactive: -0.0578
CTACATAA	inactive: 0.22
GTTGCAAC	inactive: 0.0757
CATAGGCC	inactive: -0.0635
AGACCAAC	inactive: -0.0292
CAAGGATG	inactive: 0.0179
CTTGGCGA	inactive: -0.216
AAGAGCTA	inactive: 0.0416
ACTCGCCC	inactive: -0.233
GGCTCAAA	inactive: -0.124
CCAACCTC	inactive: -0.0872
AAAAATAT	≥ 0.166
GCGATCAC	inactive: -0.0434
CGTTCACC	inactive: -0.0587
AAAACGTA	inactive: 0.0479

Sequence	PBM E-score
CTAGGATA	inactive: 0.0173
ACGCTATG	inactive: 0.00658
CCATTCCC	inactive: -0.157
CGTGAACG	inactive: -0.0689
ATAAATTG	≥ 0.199
GCTTTAAC	inactive: 0.015
ATTGATTG	inactive: 0.125
AATACGTG	inactive: 0.223
GACGGATC	inactive: -0.0286
AAAACATA	inactive: 0.284
AGTATCTC	inactive: 0.0637
GACTTTGC	inactive: -0.0963
GAGAGAAA	inactive: -0.124
CCCGCGCG	inactive: -0.169
CGGGTGAA	inactive: -0.0575
GGCCGGAC	inactive: -0.252
GCCAGCTA	inactive: -0.0722
AGTCCGGG	inactive: -0.154
CTGCCTAC	inactive: -0.061
CGTCGCCA	inactive: -0.127
ATCCAGGG	inactive: -0.216
TAACCGTA	inactive: 0.0558
GGACCCAA	inactive: -0.179
GCTATTCA	inactive: 0.115
TTGTAAAA	inactive: 0.275

Sequence	PBM E-score
ACATCGAG	inactive: 0.186
GCGTTAAC	inactive: -0.0237
CTTTATGC	inactive: -0.0282
CCCAGTAA	inactive: -0.0251
TCGAAGAA	inactive: -0.0229
ACAGAAAT	inactive: 0.136
ACCAGAAA	inactive: 0.0723
AGGCTCAT	inactive: -0.134
ACTATCTG	inactive: 0.0766
AAGTGCAT	≥ 0.145
CCCTCCAA	inactive: -0.198
ACAAGATG	inactive: 0.293
ACAAGGAG	inactive: 0.224
ATTCGCAG	inactive: -0.00899
AAGTTAGA	inactive: 0.14
TAATCCGA	inactive: 0.0989
CTTAAAAG	inactive: -0.0475
CGAGATAG	inactive: -0.0896
AAGCCACG	inactive: -0.154
AGCGCGAG	inactive: -0.0923
CCATACAC	inactive: 0.105
AACGGCTG	inactive: -0.0595
AAATTGGC	inactive: -0.113
ATTTGTAG	inactive: 0.239
GCCACACC	inactive: -0.027

Sequence	PBM E-score
ATCACGTA	≥ 0.14
CCTACAAC	inactive: 0.21
GCACGTCA	inactive: -0.0132
AGCCGGCA	inactive: -0.239
ATGATTTG	inactive: 0.0797
CATGTTAG	active: 0.408
ACGCGTGC	inactive: 0.0045
AGGGTGGG	inactive: -0.129
ACCAAAGC	inactive: -0.116
AGCCAACA	inactive: 0.055
ATCTCAGG	inactive: -0.107
AGAGCGAT	inactive: -0.0247
GCATTGGC	inactive: -0.14
TAGGCATA	inactive: -0.0088
ACCCCTGC	inactive: -0.23
GCAATGTA	inactive: 0.23
CGAATTTA	inactive: 0.0927
CACTTTGA	inactive: -0.0753
GAGGGCCC	inactive: -0.294
AAGCGCCT	inactive: -0.167
CTGAGTTA	inactive: -0.0145
AACCGCGG	inactive: -0.142
GCCTGCCC	inactive: -0.257
TATTATGA	inactive: 0.161
TGGTACAA	active: 0.358

Sequence	PBM E-score
ACTAATCC	inactive: 0.117
CGGGAGGC	inactive: -0.33
ATTGGATC	inactive: 0.0617
GTCCGAGA	inactive: -0.00764
ATATTCGC	inactive: 0.0752
AAGGGGAT	inactive: -0.0483
AAGAACAT	active: 0.357
CAAAGTTG	inactive: 0.0254
CACATCGA	inactive: 0.0459
AGTCTTGG	inactive: 0.0554
CATTGGCA	inactive: 0.0801
GGCCAAAC	inactive: -0.106
CGGCTAGC	inactive: -0.224
TCCCCGCA	inactive: -0.2
AACTCACT	inactive: -0.0511
AGCGATAC	inactive: 0.0511
CAGATAGG	inactive: -0.0313
AAGTCGAT	inactive: -0.0278
AAATCTCC	inactive: -0.164
CAGAAAAG	inactive: 0.0295
CTGAATAC	inactive: 0.12
TCATGCAA	inactive: 0.146
CCACACTA	inactive: 0.0174
CCTATGTC	inactive: 0.176
AGCCCCAA	inactive: -0.246

Sequence	PBM E-score
ACTCATCT	inactive: 0.0808
GATACCCC	inactive: -0.113
CAATTCGG	inactive: 0.014
CTGGAGAA	inactive: -0.12
AATCCAGC	inactive: -0.0594
CCCCCTAG	inactive: -0.359
AACTGTTC	inactive: 0.0453
ACGCGCAG	inactive: -0.193
GAAATCGC	inactive: -0.0881
ACGCGCCT	inactive: -0.159
GTGCGGGA	inactive: -0.0919
CAAATAAA	inactive: 0.108
AAGCGGTG	inactive: -0.108
CCTCAAGC	inactive: -0.28
GGCAGGCA	inactive: -0.166
GTGGACTA	inactive: 0.0435
CAATAGTC	inactive: 0.146
AAAACGTT	inactive: 0.0744
AAGGTATT	inactive: 0.0964
CCCATGAC	inactive: -0.078
CCGCACGA	inactive: -0.0767
ATAGCACG	inactive: 0.0747
ATGTTACC	active: 0.331
CTAATGAG	inactive: -0.0984
GTGATCAA	≥ 0.19

Sequence	PBM E-score
AGTGCGCG	inactive: -0.172
TTCGTAAA	inactive: 0.0388
AGGGAGCA	inactive: -0.154
AGCATTGA	inactive: 0.0229
ACACAACT	inactive: 0.243
AGCTCATA	inactive: 0.00166
CGTGACCA	≥ 0.0132
GCCTAGCC	inactive: -0.245
AAGAGGCG	inactive: -0.0927
AAGCACTT	inactive: 0.0786
AGAGCCAC	inactive: -0.0889
CTGTAGGA	inactive: -0.0496
GCCCGTGA	inactive: -0.187
CCTAGATA	inactive: 0.00054
CGGTAACA	inactive: 0.243
AATAGTCG	inactive: 0.0512
GCGAGCCC	inactive: -0.217
AATTCTCC	inactive: -0.0184
CATGAACA	active: 0.32
CACGACAG	inactive: 0.132
GCCTATTA	inactive: 0.0818
CCCTGGAC	inactive: -0.0977
CACATATA	inactive: 0.251
CATTGATA	inactive: 0.0779
TGAAGTCA	inactive: -0.00071
